# The campaign covered roughly 330,000 compounds. About 40 (0.01%) were called active. The inconclusive results got no clear call from the source; some entries with a clear call stand among them for comparison. The call rests on the fitted dose curve; in most records, active means well fitted inhibition curve with a large enough effect; inconclusive means small, poorly fitted or top-dose-only effect, or effect the other way; inactive means flat fitted curve, though single readings scatter. A potency beside an inconclusive call is a rough fit, not a confirmed value.
# Target: Ubiquitin carboxyl-terminal hydrolase 2 (Homo sapiens) (UniProt O75604)
# Assay: qHTS Assay for Inhibitors of Ubiquitin-specific Protease USP2a Using CHOP2 as the Reporter;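 on activity change, negative = inhibition: plate controls were DMSO wells for no effect and full inhibition by NEM control for full effect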
# Settings: USP2 core, Ub-CHOP2 coupled fluorogenic reporter, 485/531; activity change, negative = inhibition: at 38.3 µM (top of the series)
# In short: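 Cell-free coupled assay: 10nM USP2 core preincubated 30min RT with compound in Tris-HCl pH 8.0/CaCl2/CHAPS buffer, then 25nM Ub-CHOP2 and 25nM reporter substrate; fluorescence (Ex 485/Em 531) read after 60min RT, normalized to NEM inhibition, concentration-response curves fitted.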
# Potency means the concentration at half of the fitted maximal effect; tags describe the fitted curve by direction and shape or compound fluorescence and quenching.
# Chain of UniProt O75604 (O75604 whole entry, looked up): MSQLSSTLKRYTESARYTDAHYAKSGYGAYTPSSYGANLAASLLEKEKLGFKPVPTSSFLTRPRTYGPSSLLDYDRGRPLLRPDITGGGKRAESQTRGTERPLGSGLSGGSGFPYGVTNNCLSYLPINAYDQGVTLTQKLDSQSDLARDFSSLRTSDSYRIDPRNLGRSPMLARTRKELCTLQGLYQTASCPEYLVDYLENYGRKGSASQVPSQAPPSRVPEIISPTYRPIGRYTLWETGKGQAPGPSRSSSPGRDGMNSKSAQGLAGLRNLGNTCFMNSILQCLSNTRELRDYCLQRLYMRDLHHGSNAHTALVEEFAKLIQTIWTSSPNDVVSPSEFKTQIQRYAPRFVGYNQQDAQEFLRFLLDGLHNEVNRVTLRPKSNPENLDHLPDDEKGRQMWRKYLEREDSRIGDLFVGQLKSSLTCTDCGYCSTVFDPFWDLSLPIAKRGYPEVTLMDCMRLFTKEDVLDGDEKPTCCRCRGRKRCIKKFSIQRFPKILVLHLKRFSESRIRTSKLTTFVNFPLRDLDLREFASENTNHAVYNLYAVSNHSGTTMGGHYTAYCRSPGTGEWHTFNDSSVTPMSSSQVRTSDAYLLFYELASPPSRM
Compound,Potency,"activity change, negative = inhibition"
CCC(C(=O)Nc1nnc(-c2ccco2)s1)c1ccccc1 (centres undefined),"inconclusive: 3.55 µM [falling, single point]",–
COc1cc(/C=C/C(=O)OCC(=O)NC(=O)NCc2ccco2)ccc1OC(F)F,"inconclusive: 20 µM [falling, single point]",–
CCOc1ccc(/C=N/Nc2ccccn2)cc1,–,inactive: 1.16%
COc1ccc2nc(C)cc(SCC(=O)N/N=C/c3c(OC)ccc4ccccc34)c2c1,"inconclusive: 25.1 µM [falling, single point]",–
NC(=O)CN1C(=O)C(O)(CC(=O)/C=C\c2ccc3c(c2)OCO3)c2ccccc21 (centres undefined),–,inactive: -0.0332%
O=C(O)c1ccccc1-c1ccc(/C=C/c2cc(C(F)(F)F)[nH]c(=O)n2)o1,"inconclusive: 11.2 µM [fluorescent, partial curve]",–
CCCCCCSc1cc(-c2nc3ccc(C)cn3c2NCCCC)ccc1OC,–,inactive: -0.948%
O=C1CCN2C=Nc3cccc4ccc1c2c34,"inconclusive: 11.2 µM [fluorescent, partial curve]",–
Cc1ccc2nc3sc(C(=O)NCc4ccco4)c(N)c3cc2c1,"inconclusive: 28.2 µM [fluorescent, single point]",–
O=C(NCCOC(=O)c1ccccc1C(=O)OCCNC(=O)c1cccnc1)c1cccnc1,"inconclusive: 5.01 µM [falling, single point]",–
COc1cc(C2C=C(c3cccs3)Nc3ncnn32)cc(OC)c1OC (centres undefined),"inconclusive: 20 µM [fluorescent, single point]",–
CC(C)=C(NC(=O)c1ccccc1Br)C(=O)NCCc1nc2ccccc2[nH]1,"inconclusive: 1 µM [fluorescent, full curve]",–
O=C(/C=C/c1cc[n+](CC(=O)c2ccc3cccc4c3c2CC4)cc1)c1ccc2cccc3c2c1CC3,"inconclusive: 22.4 µM [falling, single point]",–
CCN(CC)c1ccc2cc(-c3nc(-c4ccc(OC)cc4)cs3)c(=O)oc2c1,"inconclusive: 1.26 µM [fluorescent, full curve]",–
O=[N+]([O-])/C(C(Cl)=C(Cl)Cl)=C(\Sc1ccccc1)N1CCCCC1,"inconclusive: 28.2 µM [falling, single point]",–
CCC1=[N+](CC(=O)c2ccc(Br)cc2)CCn2c(C)ccc21,"inconclusive: 14.1 µM [falling, single point]",–
Cc1n[nH]c(C)c1S(=O)(=O)N1CCCC(C(=O)Nc2nccs2)C1 (centres undefined),"inconclusive: 2.82 µM [falling, single point]",–
CCn1cc(C(=O)N2CCOCC2)c(=O)c2cc(S(=O)(=O)N(C)C)ccc21,"inconclusive: 5.01 µM [falling, full curve]",–
O=C(N/N=C/c1ccc(-c2ccc(Cl)c(C(=O)O)c2)o1)c1cc2c(ccc3ccccc32)o1,"inconclusive: 22.4 µM [falling, single point]",–
O=C(O)c1ccc2c(=O)n(Cc3ccccc3)c(SCc3ccc([N+](=O)[O-])cc3)nc2c1,–,inactive: 2.52%
CN(C)c1ccc(N=Cc2nc(-c3ccccc3)oc2O)cc1,"inconclusive: 20 µM [fluorescent, single point]",–
O=c1c2ccccc2sn1-c1nccs1,–,inactive: -0.0659%

Compound,Potency,"activity change, negative = inhibition"
C=CCOC(=O)C1=C(C)N=c2s/c(=C3\C(=O)N(CC(=O)O)c4ccccc43)c(=O)n2C1c1ccc(OC)cc1 (centres undefined),–,inactive: 1.32%
O=C(CN1C(=O)C2CC=C(Cl)CC2C1=O)N1CCOCC1 (centres undefined),–,inactive: 0.472%
FC(F)(F)C1=Nc2cccc3cccc(c23)N1,active: 10 µM,–
O=C(CNC(=O)c1ccco1)Nc1ccc(S(=O)(=O)N2CCCC2)cc1,"inconclusive: 20 µM [falling, single point]",–
C=CCSC1=N/C(=C\C=C\c2ccco2)C(=O)S1,"inconclusive: 28.2 µM [falling, single point]",–
CCCCNc1c2c3c(cccc3n(C)c1=O)C(=O)c1ccccc1-2,"inconclusive: 10 µM [fluorescent, partial curve]",–
O=C(Nc1ccc(Nc2ccncc2)cc1)c1ccc(Nc2ccnc3ccc([N+](=O)[O-])cc23)cc1,"inconclusive: 2.82 µM [falling, single point]",–
O=C(CCCc1cccs1)N1CCN(S(=O)(=O)c2ccccc2Br)CC1,–,inactive: 4.1%
O=C(/C=C/c1ccc(F)cc1)NCc1ccco1,–,inactive: 0.14%
O=C(O)C1CCCN1c1ncccn1 (centres undefined),–,inactive: -0.902%
O=[N+]([O-])c1c(NCCO)cc(N2CCN(Cc3ccc4c(c3)OCO4)CC2)c2nonc12,"inconclusive: 12.6 µM [falling, single point]",–
O=C(O)c1cccc(-n2cccc2/C=C2/NC(=O)N(c3ccc(Cl)cc3)C2=O)c1,"inconclusive: 28.2 µM [falling, single point]",–
Cc1cccnc1Nc1nc(-c2ccccn2)cs1,–,inactive: 1.15%
CN(C)c1ccc(-c2cc(O)c3ncccc3c2)cc1,inactive,–
N#C/C(=C\c1ccc(N2CCCCC2)o1)C(N)=O,"inconclusive: 11.2 µM [fluorescent, single point]",–
COc1cccc(CN(C)C(=O)c2cc(S(=O)(=O)N3CCCCCC3)ccc2OC)c1,"inconclusive: 28.2 µM [fluorescent, single point]",–
CCN(CC)c1ccc2c(Cl)c(Br)c(=O)oc2c1,"inconclusive: 10 µM [fluorescent, partial curve]",–
CC1=C(C#N)C(=O)N(C2CCS(=O)(=O)C2)C(=O)/C1=C\c1ccc(C)o1 (centres undefined),"inconclusive: 11.2 µM [fluorescent, partial curve]",–
CC(=O)c1cccc(NC(=O)C(C)OC(=O)c2cc(=O)[nH]c3ccccc23)c1 (centres undefined),"inconclusive: 28.2 µM [falling, single point]",–
C=CC[C@H](CC(=O)OC(C)(C)C)C(=O)OC[C@@H]1CCCN1C(=O)[C@H](CC=C)CC(=O)N[C@H](CO)Cc1ccccc1,"inconclusive: 28.2 µM [falling, single point]",–
CC(NC(=O)COc1ccccc1-c1ccccc1)c1ccccc1 (centres undefined),"inconclusive: 3.98 µM [falling, single point]",–
O=C(O)CCCN1C(=O)/C(=C/C=C/c2ccco2)SC1=S,"inconclusive: 12.6 µM [falling, single point]",–

# Source: PubChem BioAssay AID463254 (National Center for Advancing Translational Sciences (NCATS), 2010)
